# Measured values published in the supplement of paper PMC11417369.
# ± gives the standard deviation of the averaged measurements. Some of the results follow.
# Test system: PfAP2-EXP AP2 domain (GST-tagged)
# Experiment: gcPBM binding intensity (ln(normalized median fluorescence intensity)); higher = stronger DNA binding
# Method in brief: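 Plasmodium falciparum DNA-binding domains carrying a GST tag were expressed in E. coli and applied for 1 h, at about 25 μg on average, to an Agilent 4 × 180k array. The array held primer-extended double-stranded 36-bp intergenic genomic probes together with negative controls, and binding took place in 1× PBS with 1% milk, 0.2 mg/ml BSA, 0.5% salmon testes DNA and 0.03% Triton X-100. An Alexa488 anti-GST antibody detected bound protein, and the array was scanned at 488 nm. Binding intensity is taken as the highest Masliner-normalised natural-log median intensity across replicate spots of either probe orientation.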
row,Sequence,gcPBM binding intensity (ln)
1,TTTTTTATTACTTTGTGTACTTACACAGAACCTTAT [XGTACX_site6038],8.8 ± 0.28
2,ATATATTTATTTATATGTACATAATATTTTTCTCAG [XGTACX_site800],8.6 ± 0.37
3,AAAAAAAAAAAAAACACACACACACCCAAATATATA [CACACA_site1169],8.71 ± 0.3
4,TAAAAAAACATATATTGTACGGAGATAATAATTTTT [XGTACX_site2946],8.68 ± 0.32
5,AAAAATAAAAAAATAATAAAATAAAAAATAAAAAAT [TGCATGCA_negctrl_site89],8.35 ± 0.57
6,ATGTATAAACATATATGTACTTAAATAAAATGTTAA [XGTACX_site4044],8.59 ± 0.3
7,ATTAAAAGAACAATGTAAAAAAAGCAAATTAAAGAT [TGCATGCA_negctrl_site360],9.08 ± 0.49
8,CACCAATTCATATGCACACACATCTGCATATTATAT [CACACA_site1773],8.9 ± 0.23
9,TATACTGTCAATTCTACACACCATAGGGGGAGCATA [CACACA_site1875],9.63 ± 0.23
10,TTATTAAATGAAAAATGTACATATAAATGATTATAT [XGTACX_site2788],8.51 ± 0.25
11,GAAATGTGTAGACACGCACACACAAAAAAATATATA [CACACA_site2912],8.62 ± 0.33
12,TATACATATTTAATATGTACATAATAATACTTATTC [XGTACX_site6939],8.29 ± 0.31
13,CCAAATTTATAAAGAACACACACATATATATATATA [CACACA_site7900],9.99 ± 0.4
14,AAGCATGTAGAATAATGTACTTGTGATTTTAATATA [XGTACX_site8565],8.29 ± 0.3
15,AAAAAAAAAATACAGGTGCAATAAGAAAAAAATGGT,9.28 ± 0.26
16,TATATTAACAAAATGGTGCAATAATTTCTATATTAT [GTGCAC_site9857],8.695 ± 0.049
17,TCGTTTCCTTAAAATTGTACTTTTTTTTTTTTTTTT [XGTACX_site64],8.73 ± 0.26
18,TATTATAAAGAAATTACACACATGCAATGAAAAAAA [CACACA_site1697],8.89 ± 0.32
19,TGTTATTATTTGTACACACACATATAGATCCTTGTT [CACACA_site7667],8.86 ± 0.26
20,TAATGATAAATACATACACACAAAAAATAATATATA [CACACA_site2576],8.75 ± 0.49
21,AGAGTATATATATATGCATGCATATCTCATATTTAT [TGCATGCA_site509],9.635 ± 0.021
22,ATAGAAATTATAAATAGTACATAATAAAAATGAGCA [XGTACX_site822],8.94 ± 0.3
23,TGAGGAAACATGAGATGTACATATAAATTTTTTTTT [XGTACX_site2595],8.36 ± 0.52

row,Sequence,gcPBM binding intensity (ln)
1,CCTAAATATTTTTTATGTACATATTTATCTAAATTT [XGTACX_site6835],8.82 ± 0.31
2,ATTAAAGAGATATATACACACATTATGGGGGAATAA [CACACA_site6226],9.34 ± 0.44
3,TAAGAAATAAATAGTACACACATAGACACCCACCCA [CACACA_site8429],9.46 ± 0.49
4,AAACAAAATGGTAACACACACATATATAAATATGTA [CACACA_site6994],8.43 ± 0.45
5,AGGGTTACAAGAGGAACACACAAAAAAATAAATAAA [CACACA_site1436],8.71 ± 0.71
6,AAAAAAAATAGACACACACACATACACATAAATATA [CACACA_site7742],8.79 ± 0.52
7,TTTATATTACAATAATATATTAAAAAATAAAATATA [TGCATGCA_negctrl_site18],7.95 ± 0.69
8,ATTAAATCTATATATACACACATGTTTGGTATATTC [CACACA_site2657],8.64 ± 0.38
9,TTTGTAATAAACTACTTTTTTTTTTTTTTTTTTTTT [CACACA_negctrl_site571],8.92 ± 0.057
10,ATCTATTTCTATTGTTGTACTTATTTTTCATTGTTT [XGTACX_site6942],9.29 ± 0.69
11,CGATTACTAATTTTTAGTACATATAATCAATATGTA [XGTACX_site7857],8.13 ± 0.25
12,ATGTAGCCTTACGCTTGTACGAATATCTTAATTTTT [XGTACX_site4331],8.46 ± 0.36
13,TTCATATAAATACATGCACACAAAAATATCAATACA [CACACA_site8753],9.07 ± 0.24
14,ATATATTTTATTACCAGTACATATATTAAAATAATA [XGTACX_site8440],8.45 ± 0.38
15,ATATAATGTGTAGGCCGTATTTACGTTTGGCAATCA [CACACA_negctrl_site1130],8.65 ± 0.48
16,ATTTTTTTATTTGATTGTACAATTTTCTTTCAAAAT [XGTACX_site2902],8.9 ± 0.48
17,TATACAATATAAAATACACACGCACCCAAAAAAAAA [CACACA_site9174],8.86 ± 0.52
18,TATAATATAATATATATATATATATATATATAAGAA [CACACA_negctrl_site78],8.56 ± 0.13
19,ATATATTTATTAAGGTGTACAAAAATTATGTTGCAT [XGTACX_site7546],8.64 ± 0.3
20,TATTTTATCTAAGGATGTACATTATTAAGAAAATGT [XGTACX_site6123],8.26 ± 0.4
21,ATTTATTTATATAGAAGTACATATTTATTTATATAT [XGTACX_site6283],8.19 ± 0.23
22,TAGAAATATAATTAATGTACATATGATATTATATAT [XGTACX_site923],8.38 ± 0.33
